In the supplement of paper PMC12423691:
The list shows a part of the results. Binding of human transcription factors and regulators to the viral nucleoprotein by AlphaScreen, crude cell-free proteins, amounts not normalised, one pass. Fold of the Venus control; higher = more signal. No active / inactive call. Single-pass screen; sequences are the whole Swiss-Prot entries looked up by name.

B1: ETV4, P43268 (protein)
chain: MERRMKAGYLDQQVPYTFSSKSPGNGSLREALIGPLGKLMDPGSLPPLDSEDLFQDLSHFQETWLAEAQVPDSDEQFVPDFHSENLAFHSPTTRIKKEPQSPRTDPALSCSRKPPLPYHHGEQCLYSSAYDPPRQIAIKSPAPGALGQSPLQPFPRAEQRNFLRSSGTSQPHPGHGYLGEHSSVFQQPLDICHSFTSQGGGREPLPAPYQHQLSEPCPPYPQQSFKQEYHDPLYEQAGQPAVDQGGVNGHRYPGAGVVIKQEQTDFAYDSDVTGCASMYLHTEGFSGPSPGDGAMGYGYEKPLRPFPDDVCVVPEKFEGDIKQEGVGAFREGPPYQRRGALQLWQFLVALLDDPTNAHFIAWTGRGMEFKLIEPEEVARLWGIQKNRPAMNYDKLSRSLRYYYEKGIMQKVAGERYVYKFVCEPEALFSLAFPDNQRPALKAEFDRPVSEEDTVPLSHLDESPAYLPELAGPAQPFGPKGGYSY
B2: RBCK1, Q9BYM8 (protein)
chain: MDEKTKKAEEMALSLTRAVAGGDEQVAMKCAIWLAEQRVPLSVQLKPEVSPTQDIRLWVSVEDAQMHTVTIWLTVRPDMTVASLKDMVFLDYGFPPVLQQWVIGQRLARDQETLHSHGVRQNGDSAYLYLLSARNTSLNPQELQRERQLRMLEDLGFKDLTLQPRGPLEPGPPKPGVPQEPGRGQPDAVPEPPPVGWQCPGCTFINKPTRPGCEMCCRARPEAYQVPASYQPDEEERARLAGEEEALRQYQQRKQQQQEGNYLQHVQLDQRSLVLNTEPAECPVCYSVLAPGEAVVLRECLHTFCRECLQGTIRNSQEAEVSCPFIDNTYSCSGKLLEREIKALLTPEDYQRFLDLGISIAENRSAFSYHCKTPDCKGWCFFEDDVNEFTCPVCFHVNCLLCKAIHEQMNCKEYQEDLALRAQNDVAARQTTEMLKVMLQQGEAMRCPQCQIVVQKKDGCDWIRCTVCHTEICWVTKGPRWGPGGPGDTSGGCRCRVNGIPCHPSCQNCH
B3: NKX2-6, A6NCS4 (protein)
chain: MLLSPVTSTPFSVKDILRLERERSCPAASPHPRVRKSPENFQYLRMDAEPRGSEVHNAGGGGGDRKLDGSEPPGGPCEAVLEMDAERMGEPQPGLNAASPLGGGTRVPERGVGNSGDSVRGGRSEQPKARQRRKPRVLFSQAQVLALERRFKQQRYLSAPEREHLASALQLTSTQVKIWFQNRRYKCKRQRQDKSLELAGHPLTPRRVAVPVLVRDGKPCLGPGPGAPAFPSPYSAAVSPYSCYGGYSGAPYGAGYGTCYAGAPSGPAPHTPLASAGFGHGGQNATPQGHLAATLQGVRAW

Molecular target: nucleoprotein N of Crimean-Congo hemorrhagic fever virus
Assay: AlphaScreen luminescence signal relative to Venus negative control (fold); higher = stronger binding to CCHFV N
Method: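 AlphaScreen binding of cell-free made, FLAG-GST-tagged human transcription factors and regulators (crude translation products) to biotinylated N protein; signal as fold of the FLAG-GST-Venus control. One pass.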

Binder	AlphaScreen luminescence signal
B1	2.65
B2	2.23
B3	4.93
